Like-named read-outs stand apart in the source and are kept apart here. No constants are given. Whether binding was seen depends on the method and setting. For some assays here: Binding seen in cells or lysates may run through a third protein. Some entries that bind do so weakly or less than the wild type. For some assays here: Where a sequence is shown, tags or fusion partners need not be part of it. One block for each molecule: values may come before it.
How the values were obtained:
[1] = target: T1, CaV3-Myc (caveolin-3, Myc-tagged) (UniProt P56539); assay: co-IP; Flag-tagged MG53 (wild type or S255A) with p85-PI3K-Myc or CaV3-Myc in HEK293 cells
T1 sequence: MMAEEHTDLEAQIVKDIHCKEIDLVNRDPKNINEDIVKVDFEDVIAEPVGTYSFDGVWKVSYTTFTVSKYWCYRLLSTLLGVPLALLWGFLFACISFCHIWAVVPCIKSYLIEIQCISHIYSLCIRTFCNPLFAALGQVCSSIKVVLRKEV

Protein sequences, listed by entry. Tags and fused reporters are not part of them.
UniProt P35568: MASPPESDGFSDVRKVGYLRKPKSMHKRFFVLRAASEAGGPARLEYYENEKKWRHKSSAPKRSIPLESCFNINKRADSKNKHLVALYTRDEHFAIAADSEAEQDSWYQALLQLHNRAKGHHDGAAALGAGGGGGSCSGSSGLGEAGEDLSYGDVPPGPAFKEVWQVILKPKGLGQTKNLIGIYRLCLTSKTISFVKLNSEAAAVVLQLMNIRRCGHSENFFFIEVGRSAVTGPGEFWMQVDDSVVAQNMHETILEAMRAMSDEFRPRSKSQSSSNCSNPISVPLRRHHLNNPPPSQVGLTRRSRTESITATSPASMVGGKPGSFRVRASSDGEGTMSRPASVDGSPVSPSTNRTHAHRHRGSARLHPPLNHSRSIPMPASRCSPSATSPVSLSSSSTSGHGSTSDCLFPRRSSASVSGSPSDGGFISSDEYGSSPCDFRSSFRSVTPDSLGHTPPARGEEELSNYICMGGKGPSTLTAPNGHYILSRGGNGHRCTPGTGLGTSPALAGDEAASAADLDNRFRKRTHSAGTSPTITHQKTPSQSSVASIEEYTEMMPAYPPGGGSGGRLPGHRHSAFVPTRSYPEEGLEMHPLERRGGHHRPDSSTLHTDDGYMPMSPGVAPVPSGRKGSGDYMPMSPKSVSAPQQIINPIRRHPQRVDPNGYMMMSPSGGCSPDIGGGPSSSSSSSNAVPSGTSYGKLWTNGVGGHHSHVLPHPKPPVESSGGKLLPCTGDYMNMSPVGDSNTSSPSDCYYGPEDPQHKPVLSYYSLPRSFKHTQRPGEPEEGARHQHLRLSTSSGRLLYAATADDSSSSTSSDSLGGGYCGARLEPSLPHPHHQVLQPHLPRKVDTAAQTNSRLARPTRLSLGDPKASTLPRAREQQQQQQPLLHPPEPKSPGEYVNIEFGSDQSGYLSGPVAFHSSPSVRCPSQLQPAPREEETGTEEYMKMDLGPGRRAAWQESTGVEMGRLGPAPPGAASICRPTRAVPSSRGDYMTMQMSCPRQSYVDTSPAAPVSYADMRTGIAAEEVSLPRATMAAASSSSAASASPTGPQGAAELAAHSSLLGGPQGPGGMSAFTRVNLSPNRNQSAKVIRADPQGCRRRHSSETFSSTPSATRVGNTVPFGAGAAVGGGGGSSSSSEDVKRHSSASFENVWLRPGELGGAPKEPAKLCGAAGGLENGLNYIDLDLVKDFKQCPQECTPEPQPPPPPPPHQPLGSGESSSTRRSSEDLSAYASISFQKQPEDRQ

[2] = target: T2, Myc-tagged MG53-S255A mutant (human) (UniProt Q6ZMU5); assay: co-IP; IRS1 co-expressed with Myc-tagged MG53 (wild type or S255A) in HEK293 cells
T2 sequence: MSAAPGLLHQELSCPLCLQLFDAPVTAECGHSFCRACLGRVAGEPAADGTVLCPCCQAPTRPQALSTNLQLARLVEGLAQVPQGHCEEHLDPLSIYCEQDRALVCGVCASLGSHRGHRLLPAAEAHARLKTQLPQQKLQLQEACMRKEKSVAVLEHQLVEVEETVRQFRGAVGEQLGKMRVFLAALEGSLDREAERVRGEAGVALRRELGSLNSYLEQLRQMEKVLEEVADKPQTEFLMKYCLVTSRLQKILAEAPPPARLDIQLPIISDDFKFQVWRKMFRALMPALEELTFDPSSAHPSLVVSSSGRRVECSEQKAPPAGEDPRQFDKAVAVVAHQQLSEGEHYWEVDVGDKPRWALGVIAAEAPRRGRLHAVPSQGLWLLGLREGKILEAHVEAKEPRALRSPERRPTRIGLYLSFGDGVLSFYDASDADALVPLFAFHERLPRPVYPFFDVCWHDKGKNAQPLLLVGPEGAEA

[3] = target: IRS1 (insulin receptor substrate 1), immobilized on the SPR chip (UniProt P35568); assay: SPR; IRS1 immobilized on the chip; MG53-WT or MG53-S255A injected at indicated concentrations; both purified
[4] = target: T1, CaV3-Myc (caveolin-3, Myc-tagged); assay: co-IP; Flag-tagged MG53 (wild type or S255A) with p85-PI3K-Myc or CaV3-Myc in HEK293 cells; remark: listed apart in the source
[5] = target: IRS1 (insulin receptor substrate 1), immobilized on the SPR chip (UniProt P35568); assay: SPR; IRS1 immobilized on the chip; MG53-WT or MG53-S255A injected at indicated concentrations; both purified; remark: listed apart in the source

Molecule: recombinant human MG53, wild type (rhMG53-WT) (from UniProt Q6ZMU5 1-477)
binding [3]: binds

B1: Flag-tagged S255A mutant of MG53 (protein, UniProt Q6ZMU5 1-477)
chain: T2 sequence
binding [4]: binds

B2: recombinant human MG53-S255A mutant (rhMG53-S255A) (protein, UniProt Q6ZMU5 1-477)
chain: T2 sequence
binding [5]: no binding

Next, values leading:

binding [1]: binds
Molecule: Flag-tagged wild type MG53 (from UniProt Q6ZMU5 1-477)

binding [2]: no binding
Molecule: IRS1 (insulin receptor substrate 1), co-expressed in HEK293 cells (from UniProt P35568 1-1242)

From article PMC9770150
